About 450 (0.94%) of roughly 48,000 compounds were called active. Another 19% or so got no clear call; they are omitted. The call rests on the fitted dose curve; in most records, active means well fitted inhibition curve with a large enough effect; inconclusive means small, poorly fitted or top-dose-only effect; inactive means no such curve, though single readings can be large or run the other way. Some of the results follow.

A short description of this experiment: Primary qHTS for Identification of Small Molecule Inhibitors of Huntingtin Promoter Activity. Further: nearly all actives have a fitted effect of over 50% in size. The note with it: HEK293 HTT promoter firefly luciferase reporter (activity 0% = vehicle and -100% = no light), 24 h; series mostly up to 57.5 µM; activity change, negative = inhibition: at the top concentration. An outline of the steps:
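HEK293 Fluc reporter, 2,500 cells/well, 24 h pre-culture; cpds up to 57.5 uM final, 24 h 37 degrees C; Dual-Glo, 10 min RT; normalized vehicle = 0%, zero RLU = -100%.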
In general terms: Quantitative high-throughput screening tests each substance at several concentrations.
On to `Cc1c(Cl)cccc1-n1ncc(C(=O)Nc2ccc3c(c2)OCCO3)c1C1CCN(C(=O)OC(C)(C)C)CC1`, for which the “activity change, negative = inhibition” value was inactive: -24.9%.

Take `CCOc1ccc(-c2nc(SC(C(C)=O)C(=O)N(C)C)c3c(=O)n(C)c(=O)n(C)c3n2)cc1` (stereo not drawn): the “activity change, negative = inhibition” value is inactive: -3.19%.

As to `CCc1ccc(NC(=O)c2ccc3c(c2)nnn3CC)cc1`, the “activity change, negative = inhibition” value was inactive: 0%.

As to `Cc1ccccc1OCC(=O)OCc1cc(=O)n2ccsc2n1`, the “activity change, negative = inhibition” value was inactive: -12.9%.

Turning to `Cc1ccc2cc3cc(C(=O)Nc4ccc(F)cc4Cl)oc3nc2c1`, the “activity change, negative = inhibition” value is inactive: -6.3%.

In the case of `CCc1ccc(OC(C)C(=O)Nc2c(C(=O)c3ccccc3)oc3ccccc23)cc1` (stereo not drawn), the “activity change, negative = inhibition” value was inactive: -18.3%.

With `COc1ccc(Cl)cc1NC(=O)c1cc2c(s1)-c1ccccc1OC2`, the “activity change, negative = inhibition” value was inactive: 4.92%.

Consider `COCCNC(=O)CCc1nc2cccnc2n1Cc1ccc(OC)cc1`, for which the “activity change, negative = inhibition” value was inactive: -7.12%.

Consider `Oc1c(Br)cc(Br)cc1-c1nc2ccccc2s1`, for which the “activity change, negative = inhibition” value was inactive: -6.03%.

For `CS(=O)(=O)N(CC(=O)NCCSc1ccccc1)c1cc(C(F)(F)F)ccc1Cl`, the “activity change, negative = inhibition” value was inactive: -22%.

With `COc1ccc(OC)c(NC(=O)CSc2cn(CC(=O)N3CCOCC3)c3ccccc23)c1`, the “activity change, negative = inhibition” value was inactive: -4%.

Regarding `COc1cccc(C2C(C(=O)Nc3ccccc3)=C(C)Nc3nc(-c4ccccc4)nn32)c1` (stereo not drawn), the “activity change, negative = inhibition” value is inactive: 1.24%.

Take `CCCN(CCC)C(=O)C1CCCN(S(=O)(=O)c2ccc3c(c2)oc(=O)n3C)C1` (stereo not drawn): the “activity change, negative = inhibition” value was inactive: -14.4%.

On to `O=C(c1ccccc1)c1ccccc1NC(=O)c1ccccc1C(=O)O`, for which the “activity change, negative = inhibition” value was inactive: -15.7%.

In the case of `COc1ccc(-c2noc(-c3ccc(NC4CCCC4)c([N+](=O)[O-])c3)n2)cc1`, the “activity change, negative = inhibition” value is inactive: -11.6%.

With `CC(=O)c1ccc(N2CCN(C(=O)c3cc4cc5cc(C)ccc5nc4s3)CC2)cc1`, the “activity change, negative = inhibition” value was inactive: 8.11%.

As for `Cc1ccc(C)c(NC(=O)C2CCCN(S(=O)(=O)c3ccc4[nH]c(=O)ccc4c3)C2)c1` (stereo not drawn), the “activity change, negative = inhibition” value is inactive: -14.8%.

With `Cc1ccc(C(=O)c2oc3ccccc3c2NC(=O)c2cc(-c3ccccc3)on2)cc1F`, the “activity change, negative = inhibition” value was inactive: -1.06%.

Regarding `Cc1noc(Cn2c(=O)c3cc4c(cc3n(CC(=O)Nc3cccc(Cl)c3)c2=O)OCO4)n1`, the “activity change, negative = inhibition” value is inactive: -20.6%.

For the molecule `COc1ccc(NC(=O)[C@@H](c2ccccc2)N2Cc3ccccc3C2=O)cc1OC`, the “activity change, negative = inhibition” value is inactive: -17.1%.

Consider `CC(=O)Nc1nonc1-c1nnc(SCC(=O)Nc2ccc(C)cc2C)n1C`, for which the “activity change, negative = inhibition” value was inactive: -10.3%.

As to `CN(C)CCOC(C)(c1ccccc1)c1ccccn1` (stereo not drawn), the “activity change, negative = inhibition” value is inactive: 14%.

On to `CC1CCc2c(sc(NC(=O)COc3ccccc3)c2C(=O)Nc2ccccc2Cl)C1` (stereo not drawn), for which the activity change, negative = inhibition was inactive: -8.54% [at 11.5 µM].

`Cc1ccc(CSCC(=O)N2CCN(c3cc(Cl)ccc3C)CC2)cc1`: the “activity change, negative = inhibition” value is inactive: -14.6%.

With `C=CCNC(N)=S`, the “activity change, negative = inhibition” value is inactive: 1.34%.

Regarding `Cc1ccc(-n2nc(C(=O)NCCN(C)C)c(=O)n(C)c2=O)cc1`, the “activity change, negative = inhibition” value was inactive: -3.26%.

For the molecule `COc1ccc(C2C(C(N)=O)=C(C)Nc3nc(-c4ccccc4Cl)nn32)cc1` (stereo not drawn), the “activity change, negative = inhibition” value is inactive: -0.605%.

`Cc1[nH]c2ccccc2c1C(=O)C(=O)NC1CC(=O)N(c2cccc(F)c2)C1` (stereo not drawn): the “activity change, negative = inhibition” value was inactive: 4.01%.

In the case of `COc1cccc(-c2cc(=O)c3ccccc3o2)c1N`, the “activity change, negative = inhibition” value is inactive: 34%.

Regarding `Cn1c(=O)[nH]c(=O)c2c1nc1n(CCO)c(-c3ccccc3)cn21`, the “activity change, negative = inhibition” value was inactive: 6.53%.

`CCCCOc1ccc(-c2cc3c(=O)n(CC(=O)Nc4ccc(Cl)cc4Cl)ccn3n2)cc1`: the “activity change, negative = inhibition” value is inactive: -8.93%.

For the molecule `O=C(CSc1nc2c(cnn2-c2ccc(F)cc2)c(=O)[nH]1)Nc1ccc(Br)cc1`, the “activity change, negative = inhibition” value was inactive: -14.3%.

With `Cc1ccc(-c2nn(CC(=O)NC3CCCCC3)c3c2cnc2ccc(F)cc23)cc1C`, the “activity change, negative = inhibition” value was inactive: -10.8%.

Consider `CCOc1cccc2cc(-c3nnc(Nc4ccc(F)c(Cl)c4)s3)c(=O)oc12`, for which the “activity change, negative = inhibition” value was inactive: 27.1%.

With `CC(=O)c1ccc2c(c1)N(CCCN(C)C)c1ccccc1S2`, the “activity change, negative = inhibition” value is inactive: -17.2%.

Turning to `COc1cccc(CNC(=O)c2cc(=O)[nH]c3ccc(S(=O)(=O)N4CCCCC4)cc23)c1`, the “activity change, negative = inhibition” value was inactive: -17.4%.

For the molecule `CC(C)C(=O)OC1=CN(Cc2ccccc2)S(=O)(=O)c2ccccc21`, the “activity change, negative = inhibition” value is inactive: -11.2%.

`Cc1ccc(Cl)cc1NC(=O)CN(C)S(=O)(=O)c1ccc2c(c1)n(C)c(=O)c(=O)n2C`: the “activity change, negative = inhibition” value is inactive: -5.04%.

`COc1ccc(CCNC(=O)c2cc(-c3ccccc3)nc3ccccc23)cc1OC`: the “activity change, negative = inhibition” value was inactive: -16.9%.

Consider `CCn1cc(C(=O)OCC(=O)Nc2cc(C)cc(C)c2)c(=O)c2ccc(C)nc21`, for which the “activity change, negative = inhibition” value was inactive: -13.8%.

`COC(=O)c1scc(-c2ccc(C)cc2)c1S(=O)(=O)Nc1cccc(C(F)(F)F)c1`: the “activity change, negative = inhibition” value was inactive: 23.7%.

In the case of `COC(=O)c1sc2cccc(F)c2c1S(=O)(=O)Nc1cc(OC)cc(OC)c1`, the “activity change, negative = inhibition” value is inactive: -21.1%.

`O=C(CSc1nc2ccccc2c(=O)n1CCC(=O)NC1CCCCC1)Nc1ccccc1Cl`: the “activity change, negative = inhibition” value is inactive: -5.43%.

Turning to `Cc1nn(CCCC(=O)NCc2ccccc2)c(=O)c2nn(-c3ccccc3)c(C)c12`, the “activity change, negative = inhibition” value was inactive: -18.5%.

For the molecule `C[C@@H](O)[C@H]1C(=O)N2C(C(=O)O)=C(S[C@@H]3CN[C@H](CNS(N)(=O)=O)C3)[C@H](C)[C@H]12`, the “activity change, negative = inhibition” value is inactive: 10.2%.

As to `CCC(=O)N1CCc2cc(S(=O)(=O)NCCC(=O)Nc3ccc(OC)c(Cl)c3)ccc21`, the “activity change, negative = inhibition” value is inactive: -10.1%.

`CCc1nnc2c(NCc3ccccc3OC)nc3ccccc3n12`: the “activity change, negative = inhibition” value is inactive: 1.58%.

`CC(C)c1nnc(N2C(=O)c3oc4ccccc4c(=O)c3C2c2cccc(O)c2)s1` (stereo not drawn): the activity change, negative = inhibition is inactive: -6.22% [at 11.5 µM].

These data come from PubChem BioAssay AID1508623 (National Center for Advancing Translational Sciences (NCATS), 2021).
